Laboratory results reported in ChEMBL document CHEMBL4888484, “Replenishing the malaria drug discovery pipeline: Screening and hit evaluation of the MMV Hit Generation Library 1 (HGL1) against asexual blood stage Plasmodium falciparum ,using a nano luciferase reporter read-out” (2022).
Hit rate of the full screen: of about 150,000 compounds, about 540 (0.36%) showed an effect of 50% or more. This is one part of the list.

Test system: Plasmodium falciparum
Test: Primary screen in NF54 nanoGlo assay, in single point, at 2uM, 72h; a lower Z score goes with more inhibition
Type: functional, Erythrocyte
Conditions: timepoint 72 hour

SMILES	% Inhibition	Z score
CNC(=O)[C@@H]1CCCN1C(=O)CNC(=O)c1ncccc1O	-9%	1.84
Clc1ccc([C@@H]2CN(CCCc3cccnc3)CCO2)cc1	-6%	1.19
CC1(C(N)=O)CN(C[C@@H](O)c2ccc(C(F)(F)F)cc2)C1	-15%	1.59
CN(C)Cc1cc(CNC2CC(C)(c3ccccc3)C2)no1 (stereo not drawn)	-6%	0.85
COc1cccc(CN[C@H](c2cnn(C)c2)C2(CO)CCC2)c1C	4%	-0.51
Cc1ccc(N(C)S(=O)(=O)c2cc(-c3nc(-c4ccc(Cl)cc4)no3)sc2C)cc1	-2%	0.25
CN(C)c1ccc([C@H]2OCCC3(CCCCC3)O2)cc1	-2%	0.23
COCc1ncc(C(=O)Nc2nc(CC3CC3)ns2)s1	-11%	1.99
CC(C)(C)OC(=O)N1C[C@H](C(=O)Nc2nncs2)[C@@H](C(=O)Nc2nncs2)C1	22%	-2.58
COc1ccc(CC(=O)N2CCCC[C@@H]2CCN2CCCCC2)cc1	-10%	1.33
Cc1ncsc1CN[C@@H](C)C(C)(C)CO	0%	0.01
O=C(CCc1nnn2c1CN(C(=O)c1cccc(F)c1)CC2)N1CCOCC1	-11%	2.17
Cc1ccc(CNC(=O)Cn2c(N(C)Cc3ccccc3)nc(C)cc2=O)cc1	-19%	1.71
CC(C)N(CCOC(=O)N(C)C)C1CCC1	-14%	2.01
Cc1noc(COc2ccc(S(=O)(=O)c3ccccc3)cc2)n1	-16%	1.86
O=C(NCc1ccccn1)c1nnc(Cc2cccc(F)c2)o1	-5%	0.98
NC(=O)CN1CCCN(C(=O)c2cnc3ccccc3n2)CC1	33%	-0.88
CCC[C@@H](CCC(=O)NC1CCCCC1)C(=O)O	6%	-0.79
Cc1ccc(-n2[nH]c(C(=O)N3CC[C@@H](C(F)(F)F)C(C)(C)C3)cc2=O)cc1	-13%	1.84
CCn1cc(CN2CCC(n3nccc3NC(=O)c3ccc4c(c3)OCO4)CC2)c(C)n1	0%	0.02
COc1cc2c(cc1OC)CN(C(=O)c1ccc3ccn(C(C)C)c3c1)CC2	-6%	0.89

SMILES	% Inhibition	Z score
CCCN(Cc1c(C)nn(-c2ccccc2)c1Oc1ccccc1OC)C(=O)c1ccc(Cl)cc1	10%	-0.91
CC(C)n1nnnc1-c1ccc(NC(=O)Nc2cc[nH]n2)cc1F	-17%	3.14
O=C1CN(C(=O)c2ccc3c(ccn3Cc3ccccc3)c2)CCN1	-6%	0.97
Cc1cc(CS(=O)(=O)N2CCOC[C@H]2c2cccc(F)c2)no1	7%	-1.14
CCN1C[C@H](C)C(=O)N(Cc2cccnc2)C1=O	-13%	1.13
CN(C)CC(NC(=O)NC1CC2CCC1O2)c1ccc(Cl)cc1 (stereo not drawn)	2%	-0.24
CCCc1nc(-c2ncsc2Cl)no1	-4%	0.72
CCCN1C(=O)c2cc(C(=O)NCCC(C)C)nn2C[C@@]1(C)C(=O)NC1CCCC1	17%	-1.97
O=C(NCCc1cnc2c(Cl)cnn2c1)N1CCCC2(CCCC2)CC1	-2%	0.42
C[C@H]1CCN(CCOc2ccc(NC(=O)c3cc4c(s3)CCNC4)cc2)C1	7%	-1.1
Cc1[nH]c(CN2[C@@H]3CC[C@H]2CN(C)CC3)cc1C#N	-7%	0.93
CN(C)Cc1nnc([C@H]2C[C@@H](NC(=O)c3conc3-c3ccccc3)C2)n1C	-11%	1.93
C[C@@H](c1ccccc1F)N(C)S(=O)(=O)CC1CCOCC1	-6%	0.68
O=C(NC(c1ccccc1)c1ccccc1)c1cc(-c2ccc(F)cc2)nn1-c1cccc(Cl)c1	-12%	1.9
C/C(=C\c1ccccc1)C(=O)N1CC2CC1CS2(=O)=O (stereo not drawn)	-12%	1.38
O=C(C[C@H](c1cccc(C(F)(F)F)c1)c1c[nH]c2ccccc12)N1CCCCC1	-7%	0.68
Cn1cnnc1[C@@H]1CCCN1c1ncc(Cl)cc1Cl	1%	-0.21
COc1ccc(-c2cccc(-n3cncc3C(=O)NC3CCC[C@H]3OCc3ccccc3)c2)cc1OC (stereo partly drawn)	-7%	1.32
O=C(CNCCn1cccn1)NCc1cccs1	1%	-0.14
Cc1ccc(OC[C@H]2c3ccsc3CCN2C(=O)CN(C(=O)C2CCCC2)C(C)(C)C)cc1	-23%	2.03
CCCCc1nc(CN2CCc3[nH]cnc3[C@@H]2c2cnn(C)c2)c[nH]1	-4%	0.55

SMILES	% Inhibition	Z score
COCCN(C(=O)[C@@H]1CCCO1)C1CCC(C)C1 (stereo partly drawn)	-10%	1.5
CCc1c(C)sc2c1CCN(CC(=O)Nc1ccc(F)cc1F)[C@@H]2c1ccccc1	7%	-0.68
O=C(NCc1ccc(F)cc1)Nc1ccc2c(c1)CCN2S(=O)(=O)c1ccccc1	-14%	1.85
CCn1cnnc1[C@H]1CCCN(Cc2cnc(-c3ccccc3)o2)C1	-10%	1.65
CN(C)[C@@H](CNS(=O)(=O)Cc1ccccc1Cl)c1ccc2c(c1)CCO2	-11%	1.76
CC[C@H](C)NC(=O)COCc1nnc(C(=O)Nc2cccc(F)c2)s1	0%	0.03
Cc1nc(C(=O)N2CCC=C(F)C2)c(C)o1	-5%	0.64
CCn1cc(C2OCCC2CNC(C)c2nnc(CC(C)C)o2)cn1 (stereo not drawn)	0%	0.01
CC1(C)NC(=O)c2cc(Br)ccc2O1	-12%	1.19
O=C(Nc1nc(-c2ccccc2)cs1)c1ccc2c(c1)C(=O)N(Cc1ccncc1)C2=O	-4%	0.6
Cc1cccn(CC(=O)NCC(=O)Nc2cccnc2)c1=O	-6%	0.7
COCC[C@]1(NC(=O)c2ccc(F)cc2)CCN(C(=O)c2nccn2C)C1	2%	-0.31
O=C(c1ccco1)N1CC(n2cnnc2[C@@H]2CCCO2)C1	34%	-4.55
CCOC(=O)c1nnn2c1CO[C@H](c1ccc(Cl)cc1)C2	-11%	1.25
CCOc1cccc(Cn2c(=O)c3sccc3n(CC(=O)Nc3ccccc3)c2=O)c1	36%	-1.53
COC(=O)N[C@H](C(=O)Nc1cnn2ccccc12)C(C)C	-15%	1.99
Cc1ccc(N(C(=O)c2cccs2)C(=O)c2cccs2)nc1	5%	-0.6
Clc1ccc(OCc2ccc(-c3nc4c5cn[nH]c5ncn4n3)cc2)c(Cl)c1	31%	-4.48
NC(=O)c1ccc2[nH]c(CN3CCN(c4ccccn4)CC3)cc(=O)c2c1	-12%	1.51
O=C(c1ccc(C(F)(F)F)cc1)N1C[C@@H]2C[C@H]1C(=O)N2c1ccccc1F	-2%	0.38
O=C(C[C@H]1CCCC1(F)F)Nc1cccc(-c2noc(C3CC3)n2)c1	-9%	1.72

SMILES	% Inhibition	Z score
Nc1ccc(CC(=O)N(CC2CC2)CC2CC2)cc1	-9%	1.02
COCCn1c(=O)n([C@H]2CCCN(C(=O)c3cccnc3)C2)c2ncccc21	-9%	1.08
CC1CCC(NCC(CO)Cc2ccccn2)C(C)C1 (stereo not drawn)	-11%	1.22
O=C(Nc1cccc(OCC(F)F)n1)c1ccnnc1	-6%	0.9
CCOCCCNc1oc(-c2cccnc2)nc1C#N	1%	-0.13
CC(=O)Nc1ccc(S(=O)(=O)[C@H](C#N)c2nc3ccccc3nc2NC2CCCC2)cc1	-10%	1.77
Cc1cc(C(=O)NCCCc2cnc3ncnn3c2)no1	14%	-2.65
O=C(Nc1nc2c(ccc3ccccc32)s1)C1CCC1	-2%	0.3
O=C(N[C@H]1C[C@@H]2C[C@H]1CN2C(=O)Nc1ccc(Cl)cc1F)c1cccs1	0%	0
Cc1c(NC(=O)N2CC[C@H](O)C2)cccc1N(C)C	-1%	0.12
Cc1ccc(-c2nc(CC(=O)N3CCC(C(C)(C)C)C(O)C3)cs2)o1 (stereo not drawn)	-3%	0.35
Fc1ccc(-c2cc3c(N4CCCCC4)nccn3n2)cc1	34%	-1.33
Cc1nn(C)cc1[C@H](C)n1ccnc1-c1coc(-c2ccccc2)n1	-9%	1.63
CC[C@H](C)N(Cc1cc(Cl)ccc1OS(C)(=O)=O)C(=O)CC(C)(C)C	-7%	0.66
Cc1nnc(CN(C)C(=O)c2c(C)oc3ccc(OCc4ccccc4)cc23)o1	-14%	2.18
Cc1ccc2c(Nc3ccc(C)c(C)c3)c(C(=O)N3CCOCC3)cnc2n1	-6%	1.09
CC(C)c1cc(NCCn2ccc(=O)[nH]c2=O)ncn1	-1%	0.09
CC(C)N(C)c1ccc(NC(=O)c2cccnc2O)cc1F	-6%	0.6
C[C@@H]1CN(C(=O)c2ccc(Cl)o2)CC[C@@]1(O)C1CCOCC1	-3%	0.52
O=C(c1cn2cccnc2n1)N1CCCCCC1	-17%	3.07
O=C(NCCn1cncn1)c1cc(=O)[nH]c2cc(F)ccc12	10%	-1.33
